Data from PubChem BioAssay AID485294 (National Center for Advancing Translational Sciences (NCATS), 2010).
About 150 (0.041%) of roughly 370,000 compounds were called active. This list was built around the results that the source calls inconclusive (neither active nor inactive); the mix of calls is not that of the screen. The call rests on the fitted dose curve; in most records, active means well fitted inhibition curve with a large enough effect; inconclusive means small, poorly fitted or top-dose-only effect; inactive means flat fitted curve, though single readings scatter. No potency is given beside an inconclusive call; the fits are too rough.

Target: Beta-lactamase (Escherichia coli (strain K12)) (UniProt P00811)
Assay: qHTS Inhibitors of AmpC Beta-Lactamase (assay with detergent); further: nearly all actives have a fitted effect of over 25% in size;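 on activity change, negative = inhibition: 0% = no-compound wells and -100% = no-enzyme wells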
Conditions: AmpC hydrolysis of nitrocefin, absorbance 480 nm, 0.01% Triton; activity change, negative = inhibition: at 114 µM (top of the series)
Procedure, shortened: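 AmpC (5.3 nM in the dispensed reagent) in 20 mM phosphate pH 7.0 with 0.01% (detergent screen) or 0.0001% Triton X-100 was preincubated with compounds for 15 min at room temperature. Nitrocefin was then added from an 800 uM solution, and hydrolysis was followed at 480 nm.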
Potency means the concentration at half of the fitted maximal effect; tags describe the fitted curve by direction and shape.

Sequence of UniProt P00811 (P00811 whole entry, looked up): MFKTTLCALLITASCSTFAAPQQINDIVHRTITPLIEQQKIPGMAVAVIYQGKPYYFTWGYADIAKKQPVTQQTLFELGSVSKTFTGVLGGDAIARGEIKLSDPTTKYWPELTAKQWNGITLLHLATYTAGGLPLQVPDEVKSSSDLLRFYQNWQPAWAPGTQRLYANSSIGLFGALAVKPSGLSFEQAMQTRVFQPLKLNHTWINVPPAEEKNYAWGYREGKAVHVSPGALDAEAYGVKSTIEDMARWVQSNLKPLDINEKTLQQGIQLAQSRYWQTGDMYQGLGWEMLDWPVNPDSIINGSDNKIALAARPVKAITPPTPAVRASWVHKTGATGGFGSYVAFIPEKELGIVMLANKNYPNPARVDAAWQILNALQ

Question: How did the “activity change, negative = inhibition” value turn out when `CCOC(=O)c1nn(-c2ccccc2C)c(=O)cc1OCC(=O)Nc1cccc(OC)c1` was run?
Answer: Its value is inactive: -6.99%.

Question: `COc1cc(C(=O)Nc2ccc(S(=O)(=O)Nc3cc(C)on3)cc2)cc(OC)c1OC` was tested. Which Potency did it give?
Answer: The Potency was inconclusive [inhibitor, full curve].

Question: `Cc1ccc(O)c(-c2cc(C(F)(F)C(F)F)[nH]n2)c1` was tested. Which “activity change, negative = inhibition” value did it give?
Answer: Its value is inactive: -6.97%.

Question: Which “activity change, negative = inhibition” value does the source give for `Cc1ccc(CNCCC2=CCCCC2)cc1` here?
Answer: The value was inactive: -13.1%.

Question: How did the Potency turn out when `O=C(O)CCC(=O)Nc1ccc(S(=O)(=O)N2CCCC2)cc1` was run?
Answer: The Potency was inconclusive [inhibitor, partial curve, poor fit].

Question: For `Clc1ccc(C2C3=C(Nc4ncnn42)c2ccccc2CC3)cc1` (centres undefined), which “activity change, negative = inhibition” value is on record?
Answer: Its value is inactive: -6.62%.

Question: `CS(=O)(=O)N(Cc1ccco1)CC(O)Cn1c2ccccc2c2ccccc21` (centres undefined) was tested. Which “activity change, negative = inhibition” value did it give?
Answer: Its value is inactive: 2.36%.

Question: Which “activity change, negative = inhibition” value does the source give for `CCOC(=O)N1CCc2c(sc(NCc3cc(OC)c(OC)cc3OC)c2C(=O)Nc2ccc(OCC)cc2)C1` here?
Answer: Its value is inactive: -2.62%.

Question: With `O=C(Nc1ccc(Cl)cc1)N1CCSCC1` as the compound, how does the Potency read?
Answer: Its Potency is inconclusive [inhibitor, partial curve, poor fit].

Question: Which “activity change, negative = inhibition” value does the source give for `CC(CCc1ccccc1)NC(=O)C1CCCN(C(=O)c2cc3sccc3n2C)C1` (centres undefined) here?
Answer: The value was inactive: -2.98%.

Question: Which Potency does the source give for `Cc1[nH][nH]c(=O)c1C(c1ccc(-c2ccc(Cl)cc2Cl)o1)c1c(C)[nH][nH]c1=O` here?
Answer: Its Potency is inconclusive [inhibitor, full curve].

Question: Which “activity change, negative = inhibition” value does the source give for `CCOc1ccccc1C(=O)Nc1ccc2nc(N(CC)CC)cc(C)c2c1` here?
Answer: The value was inactive: 5.64%.

Question: Which Potency does the source give for `COc1ccc(NC(=O)CN(C)C(=O)c2cc3c(cc2Cl)N2CCCCCC2=NS3(=O)=O)cc1` here?
Answer: Its Potency is inconclusive [inhibitor, full curve, poor fit].

Question: Which “activity change, negative = inhibition” value does the source give for `Cc1cc(=O)oc2c3c(cc(OCC(=O)NCC(=O)O)c12)OC(C)(C)CC3` here?
Answer: The value was inactive: 11.9%.

Question: `Cc1ccc(-n2ncc3c(N4CCCC(C)C4)ncnc32)c(C)c1` (centres undefined) was tested. Which “activity change, negative = inhibition” value did it give?
Answer: The value was inactive: 2.01%.

Question: `COCCn1c(C)cc2c(c1=O)C(c1ccccc1F)C(C#N)=C(N)O2` (centres undefined) was tested. Which “activity change, negative = inhibition” value did it give?
Answer: Its value is inactive: 1.61%.

Question: `Cc1ccc(S(=O)(=O)N2CCC(C(=O)Nc3ccc(N4CCOCC4)cc3)CC2)cc1C` was tested. Which Potency did it give?
Answer: The Potency was inconclusive [inhibitor, partial curve, poor fit].

Question: How did the Potency turn out when `Cc1ccc(S(=O)(=O)N2CCC(C(=O)N[C@@H](C)C(=O)NC3CCCCC3)CC2)cc1` was run?
Answer: The Potency was inconclusive [inhibitor, full curve, poor fit].

Question: `CC(C)CCSc1cc(NCCO)c([N+](=O)[O-])c2nonc12` was tested. Which Potency did it give?
Answer: The Potency was inconclusive [inhibitor, full curve].

Question: Which “activity change, negative = inhibition” value does the source give for `O=C(Nc1ccc(N2CCN(Cc3ccccc3F)CC2)cc1)c1ccc([N+](=O)[O-])o1` here?
Answer: The value was inactive: 2.02%.

Question: For `CCOc1ccccc1N(CC(=O)NC1CCCCC1)S(C)(=O)=O`, which Potency is on record?
Answer: Its Potency is inconclusive [inhibitor, partial curve, poor fit].

Question: How did the “activity change, negative = inhibition” value turn out when `O=C(COC(=O)/C=C/c1ccc(F)cc1)NCc1ccco1` was run?
Answer: The value was inactive: -7.31%.

Question: With `CC(C)(CN1CCC(Cc2ccccc2)CC1)NS(=O)(=O)c1ccccc1` as the compound, how does the “activity change, negative = inhibition” value read?
Answer: Its value is inactive: -0.683%.

Question: For `COc1cccc(C(=O)NCC2CCCN2S(=O)(=O)c2cccs2)c1` (centres undefined), which Potency is on record?
Answer: The Potency was inconclusive [inhibitor, partial curve, poor fit].

Question: How did the Potency turn out when `Cc1cccc(C(=O)Nc2nc(C)c(C(=O)Nc3ccc4c(c3)CCC4)s2)c1` was run?
Answer: Its Potency is inconclusive [inhibitor, full curve].

Question: How did the Potency turn out when `O=C1CN(C(=S)NC(=O)c2ccc(-c3ccccc3)cc2)CCN1` was run?
Answer: Its Potency is inconclusive [inhibitor, full curve, poor fit].

Question: With `O=c1c(-c2cc3ccccc3o2)[n+]([O-])c2ccccc2n1OCc1ccccn1` as the compound, how does the Potency read?
Answer: The Potency was inconclusive [inhibitor, single point].

Question: How did the Potency turn out when `Cc1nc(C)n(CC(O)COc2ccc3ccccc3c2)n1` (centres undefined) was run?
Answer: Its Potency is inconclusive [inhibitor, full curve].

Question: How did the Potency turn out when `OCCN1CCOCCOCCN(CCO)CCN(CCO)CC1` was run?
Answer: The Potency was inconclusive [inhibitor, full curve, poor fit].

Question: For `Cc1ccc(C(=O)N/C(=C\c2cccs2)C(=O)NC2CCCCC2)cc1`, which Potency is on record?
Answer: Its Potency is inconclusive [inhibitor, partial curve, poor fit].

Question: With `COCCn1c(=NC(=O)C(C)(C)C)sc2cc([N+](=O)[O-])ccc21` as the compound, how does the Potency read?
Answer: Its Potency is inconclusive [inhibitor, full curve, poor fit].

Question: How did the Potency turn out when `Oc1ccc2c(c1)oc1cc(O)ccc12` was run?
Answer: Its Potency is inconclusive [inhibitor, full curve, poor fit].

Question: For `CN(C)C(=S)SCC(=O)NCc1ccc(F)cc1`, which “activity change, negative = inhibition” value is on record?
Answer: The value was inactive: 2.6%.

Question: With `CC1CN(C(=O)C(Sc2ccccc2)c2ccccc2)CC(C)O1` (centres undefined) as the compound, how does the Potency read?
Answer: The Potency was inconclusive [inhibitor, partial curve, poor fit].

Question: `Cc1cc(-c2csc(NC(=O)c3ccc(=O)[nH]c3)n2)c(C)n1Cc1ccco1` was tested. Which “activity change, negative = inhibition” value did it give?
Answer: Its value is inactive: 3.61%.

Question: Which Potency does the source give for `CCCSc1nnc(N2C(=O)CC(c3ccsc3)C3=C2CCCC3=O)s1` (centres undefined) here?
Answer: Its Potency is inconclusive [inhibitor, full curve].

Question: `Cc1cc(NC(=O)c2cccnc2)ccc1NC(=O)c1ccco1` was tested. Which Potency did it give?
Answer: Its Potency is inconclusive [inhibitor, partial curve, poor fit].

Question: With `CCOc1ccccc1-c1cc(-c2ccc(OC)cc2)nc2c1c(=O)n(C)c(=O)n2C` as the compound, how does the Potency read?
Answer: Its Potency is inconclusive [inhibitor, partial curve, poor fit].

Question: For `Cc1ccc(NC(=O)NCCc2c(C)nn(C)c2C)cc1Cl`, which “activity change, negative = inhibition” value is on record?
Answer: The value was inactive: -6.99%.

Question: How did the Potency turn out when `CCN(C(=O)Cn1cnc2ccccc2c1=O)C1CCS(=O)(=O)C1` (centres undefined) was run?
Answer: The Potency was inconclusive [inhibitor, full curve, poor fit].

Question: With `CC[C@@]12C(=O)N(c3cccc(Br)c3)C(=O)N1[C@H](c1ccc(F)cc1)[C@@H]1C(=O)N(C3CCCCC3)C(=O)[C@@H]12` as the compound, how does the Potency read?
Answer: Its Potency is inconclusive [inhibitor, full curve, poor fit].

Question: With `COc1ccc(-c2nc3ccc(N4CCCC4)cc3c(=O)[nH]2)cc1OC` as the compound, how does the Potency read?
Answer: The Potency was inconclusive [inhibitor, partial curve, poor fit].

Question: For `O=C(Nc1ccccc1N1CCCC1)C1CCN(S(=O)(=O)c2ccccc2)CC1`, which Potency is on record?
Answer: Its Potency is inconclusive [inhibitor, partial curve, poor fit].

Question: Which “activity change, negative = inhibition” value does the source give for `COc1ccc(-c2csc3ncnc(N4CCN(c5ccccc5O)CC4)c23)cc1` here?
Answer: Its value is inactive: 4.83%.
